Test results published in publication PMC4336329 (PLoS ONE, 2015).
About 2,200 (0.71%) of roughly 310,000 compounds showed an effect of 50% or more. The effect is printed as a negative number. The list shows a part of the results.

Biological target: human ether-à-go-go-related gene (hERG) potassium channel (human, UniProt Q12809)
Assay: primary screen, population patch clamp on CHO cells stably expressing hERG

human ether-à-go-go-related gene (hERG) potassium channel, sequence (Q12809 whole entry, looked up): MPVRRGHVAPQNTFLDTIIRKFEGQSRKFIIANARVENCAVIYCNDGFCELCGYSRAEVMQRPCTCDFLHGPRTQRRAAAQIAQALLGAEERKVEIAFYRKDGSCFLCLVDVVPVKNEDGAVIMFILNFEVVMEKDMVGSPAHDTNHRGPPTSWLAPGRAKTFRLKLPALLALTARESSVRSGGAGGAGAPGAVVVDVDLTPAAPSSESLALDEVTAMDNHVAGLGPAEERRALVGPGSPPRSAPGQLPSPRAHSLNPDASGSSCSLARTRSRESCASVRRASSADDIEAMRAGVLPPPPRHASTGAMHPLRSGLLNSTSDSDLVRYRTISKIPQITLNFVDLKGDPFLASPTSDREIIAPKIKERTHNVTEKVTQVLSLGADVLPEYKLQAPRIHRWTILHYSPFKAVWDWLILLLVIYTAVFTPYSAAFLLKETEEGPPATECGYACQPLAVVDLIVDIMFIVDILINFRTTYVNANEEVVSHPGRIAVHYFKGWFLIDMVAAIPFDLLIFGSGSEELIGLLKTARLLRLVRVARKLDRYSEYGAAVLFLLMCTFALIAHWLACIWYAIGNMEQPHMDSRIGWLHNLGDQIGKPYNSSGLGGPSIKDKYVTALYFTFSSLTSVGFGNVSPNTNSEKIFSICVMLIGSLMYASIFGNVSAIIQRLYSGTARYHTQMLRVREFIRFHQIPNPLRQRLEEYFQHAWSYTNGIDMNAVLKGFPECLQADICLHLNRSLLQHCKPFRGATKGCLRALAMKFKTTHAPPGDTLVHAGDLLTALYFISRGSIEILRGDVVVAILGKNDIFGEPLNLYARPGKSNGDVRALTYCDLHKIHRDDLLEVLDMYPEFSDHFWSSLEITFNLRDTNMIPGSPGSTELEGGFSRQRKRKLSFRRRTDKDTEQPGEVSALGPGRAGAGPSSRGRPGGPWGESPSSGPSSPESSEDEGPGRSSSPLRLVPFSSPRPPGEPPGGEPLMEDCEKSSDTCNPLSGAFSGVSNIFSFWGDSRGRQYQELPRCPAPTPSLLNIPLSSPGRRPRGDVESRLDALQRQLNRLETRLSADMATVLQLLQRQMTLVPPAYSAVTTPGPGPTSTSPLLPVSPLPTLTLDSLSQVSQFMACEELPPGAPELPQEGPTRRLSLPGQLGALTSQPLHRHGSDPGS

Compared with `CSc1cccc(CN2CCC(CO)(Cc3cccc(C(F)(F)F)c3)CC2)c1`, `O=C(Cc1ccc(S(=O)(=O)N2CCOCC2)s1)N(Cc1ccccc1)c1ccccc1` is higher in “hERG current change (%, negative = inhibition) at 1uM” value: -35.9% for the first, 12.4% for the second.

First: CC(C)/C=C1\CCCCC1N(C)C(=O)NC(C)C (centres unmarked)
Second: COc1cc(OC)cc(C(=O)NC2CC3CCC(C2)N3C)c1 (centres unmarked)
The “hERG current change (%, negative = inhibition) at 1uM” value of the first is higher: 16.4% for the first, 7.65% for the second.

Going from `CN(C)c1ccc(/C=N/NC(=O)c2nonc2N)cc1[N+](=O)[O-]` to `O=C(NCc1cccnc1)c1cc(Cl)ccc1[N+](=O)[O-]`, the “hERG current change (%, negative = inhibition) at 1uM” value falls from 16.6% to 14.9%.

First: Cc1ccc(OC(C)C(=O)N=Nc2c(O)[nH]c3ccc([N+](=O)[O-])cc23)cc1 (centres unmarked)
Second: Cc1ccc(Nc2cc(C)nc3ccc(C)cc23)cc1
The “hERG current change (%, negative = inhibition) at 1uM” value of the first is higher: -7.55% for the first, -25% for the second.

Compared with `O=c1oc2ccccc2cc1N1CCOCC1`, `COc1ccc(S(=O)(=O)N2CCc3ccccc32)cc1C(=O)N1CCOCC1` is lower in “hERG current change (%, negative = inhibition) at 1uM” value: 5.48% for the first, -1.34% for the second.

Going from `CC(C)(C)c1cnnn1-c1ccc(NC(=O)c2ccc(Br)o2)cc1` to `O=C(Nc1ccc(F)cc1)c1ccccc1F`, the “hERG current change (%, negative = inhibition) at 1uM” value rises from 7.17% to 7.35%.

Going from `O=C(CN1CCN(S(=O)(=O)c2ccc(F)cc2)CC1)NCc1cccs1` to `CN1CCN(S(=O)(=O)c2ccc(Nc3ccc(F)cc3)nc2)CC1`, the “hERG current change (%, negative = inhibition) at 1uM” value rises from -0.596% to 1.34%.

Compared with `CCOC(=O)C1CCCN(Cc2ccccc2Cl)C1` (centres unmarked), `COc1cc(CN2CCCC(N3CCN(c4ccccc4C)CC3)C2)cc(Cl)c1O` (centres unmarked) is lower in “hERG current change (%, negative = inhibition) at 1uM” value: 1.6% for the first, -1.13% for the second.

First: COc1ccc(NC(=O)CN2C(=O)NC(C)(C3CC3)C2=O)c(OC)c1 (centres unmarked)
Second: COc1ccc(NC(=O)CN(c2ccccc2C)S(C)(=O)=O)c(OC)c1
The “hERG current change (%, negative = inhibition) at 1uM” value of the first is lower: 4.28% for the first, 7.08% for the second.

Compared with `O=C(OCc1ccc(Cl)cc1Cl)c1cccnc1Cl`, `O=C(CN1C(=O)c2ccccc2S1(=O)=O)c1ccc(Cl)cc1Cl` is higher in “hERG current change (%, negative = inhibition) at 1uM” value: 1.14% for the first, 9.83% for the second.

Compared with `COc1cc(CNc2nc(C)c([N+](=O)[O-])c(C)c2C#N)cc(OC)c1OC`, `COCCn1c(C)cc(C(=O)COc2cccnc2[N+](=O)[O-])c1C` is lower in “hERG current change (%, negative = inhibition) at 1uM” value: 8.09% for the first, 6.84% for the second.

Compared with `CC(=O)NC(CC(=O)OC(C)C(=O)Nc1ncc(Cl)cc1Cl)c1ccccc1` (centres unmarked), `CCC(Sc1nc2ccccc2c(=O)[nH]1)C(=O)Nc1ccc(C(C)=O)cc1` (centres unmarked) is lower in “hERG current change (%, negative = inhibition) at 1uM” value: 11.8% for the first, 5.81% for the second.

Compared with `O=C1c2ccccc2C(Nc2ccc3c(c2)OCO3)N1Cc1ccco1` (centres unmarked), `c1ccc(Cc2nnc3sc(-c4ccc5c(c4)OCCO5)nn23)cc1` is lower in “hERG current change (%, negative = inhibition) at 1uM” value: 13.2% for the first, -1.39% for the second.

Going from `COc1ccc(C(=O)NCC(C)(C)N2CCOCC2)cc1S(=O)(=O)N1CCCC1` to `Cc1cc(NC(=O)COC(=O)c2cc(S(=O)(=O)N3CCOCC3)ccc2N2CCCCC2)no1`, the “hERG current change (%, negative = inhibition) at 1uM” value falls from -0.111% to -3.47%.

Going from `Cc1cc(N2C(=O)C3CCCN3C2c2cccc(Cl)c2)no1` (centres unmarked) to `Cc1cn2c(-c3ccc(Cl)cc3)nnc2s1`, the “hERG current change (%, negative = inhibition) at 1uM” value falls from 10.7% to 0.473%.

Compared with `Cc1onc(-c2c(F)cccc2Cl)c1C(=O)NCc1ccc(F)cc1`, `COc1ccc(CNC(=O)c2ccc(C)o2)cc1` is lower in “hERG current change (%, negative = inhibition) at 1uM” value: 11.5% for the first, -5.18% for the second.

Compared with `COc1ccc(CCNC(=O)c2ccc(Cl)cc2)cc1`, `CC(=O)Nc1ccc(OCc2nnc(-c3ccc(Cl)cc3)o2)cc1` is lower in “hERG current change (%, negative = inhibition) at 1uM” value: 17.9% for the first, 13.4% for the second.

Going from `COc1ccccc1Nc1nc2ccccc2n2cnnc12` to `COc1ccccc1NC(=O)c1ccccc1SC`, the “hERG current change (%, negative = inhibition) at 1uM” value falls from 3.54% to 2.85%.

Going from `Cc1ccc(OCCNC(=O)C2CC(=O)N(c3ccc(C)cc3)C2)cc1` (centres unmarked) to `CCOc1ccc(S(=O)(=O)n2cc(-c3ccc(F)cc3)c(N)n2)cc1`, the “hERG current change (%, negative = inhibition) at 1uM” value rises from 3.23% to 15.1%.

Going from `Cn1cc(SCC(=O)Nc2nc3ccccc3s2)c2ccccc21` to `CSc1nc2ccc(NC(=O)c3ccccn3)cc2s1`, the “hERG current change (%, negative = inhibition) at 1uM” value rises from 0.474% to 5.4%.

Going from `COc1ccccc1C(=O)NCCC(=O)NC1CCCCC1C` (centres unmarked) to `Cc1ccccc1NC(=O)NC1CCCCCCC1`, the “hERG current change (%, negative = inhibition) at 1uM” value falls from 7.92% to 7.53%.

Compared with `CCN(c1ccccc1)S(=O)(=O)c1ccc(C(=O)Nc2ccccn2)cc1`, `CCN(CC)S(=O)(=O)c1ccc(NCc2ccccn2)nc1` is lower in “hERG current change (%, negative = inhibition) at 1uM” value: -1.12% for the first, -1.99% for the second.

Compared with `CC(=O)c1ccc(OC(C)C)c(CSC(=N)N)c1.Cl`, `COC(=O)c1ccc2c(=O)n(CCO)c(=S)[nH]c2c1` is higher in “hERG current change (%, negative = inhibition) at 1uM” value: 0.799% for the first, 10.4% for the second.

First: COc1ccc2c(c1)C(C1C(=O)CCCC1=O)c1ccccc1O2 (centres unmarked)
Second: COc1ccc(OC)c(NC(=O)C2CCCN2C(=O)OCc2ccccc2)c1 (centres unmarked)
The “hERG current change (%, negative = inhibition) at 1uM” value of the first is higher: 7.82% for the first, 2.73% for the second.

First: CC1(C)CC(=O)C(CC(=O)NC(=O)NCc2ccccc2)=C(O)C1
Second: Cc1ccc(C(=O)NCC(=O)N(C)CC(=O)Nc2ccccc2Br)s1
The “hERG current change (%, negative = inhibition) at 1uM” value of the first is lower: -5.53% for the first, 7.63% for the second.

Compared with `CCOc1ccc(Cc2nc(C)c(CC(=O)N3CCCCC3)c(=O)[nH]2)cc1`, `CCc1ccc(NC2=NC(C(=O)NC3CCCCC3)CC(=O)N2)cc1` (centres unmarked) is higher in “hERG current change (%, negative = inhibition) at 1uM” value: -8.57% for the first, 12.1% for the second.

Going from `O=c1[nH]c(C(F)(F)F)nc2c1nnn2Cc1ccccc1F` to `O=C1CCCc2ccccc2N1Cc1ccccc1Cl`, the “hERG current change (%, negative = inhibition) at 1uM” value falls from 11.2% to 6.51%.

Going from `O=S(=O)(c1ccccc1)N1CCN(S(=O)(=O)N2CCCCC2)CC1` to `O=c1c2ccccc2sn1-c1ccc(S(=O)(=O)N2CCCC2)cc1`, the “hERG current change (%, negative = inhibition) at 1uM” value rises from -3.4% to 10.2%.

Going from `COC(=O)c1ccc(NC(=O)CCC(=O)c2ccc(F)cc2)cc1` to `Cc1noc(C)c1S(=O)(=O)N(C)CC(=O)Nc1ccc(F)cc1`, the “hERG current change (%, negative = inhibition) at 1uM” value falls from 19.7% to 9.13%.

Going from `C=CCn1c(C)cc(C(=O)CN2NS(=O)(=O)c3ccccc3C2=O)c1C` to `Cn1c(=O)c2cc(NC(=O)c3ccccc3Cl)c(=O)oc2n(C)c1=O`, the “hERG current change (%, negative = inhibition) at 1uM” value rises from -4.73% to 4.12%.

Going from `CC1(C)Cc2c(c(N3CCOCC3)nc3sc4c(N5CCOCC5)nnnc4c23)CS1` to `Cc1cc(C)c2nc(N3CCC(C(=O)NCCCN4CCCCC4)CC3)sc2c1`, the “hERG current change (%, negative = inhibition) at 1uM” value falls from 15.5% to 6.06%.

Going from `CCCCN(C(=O)CN1C(=O)C2CCCCC2C1=O)c1c(N)n(CCC)c(=O)[nH]c1=O` (centres unmarked) to `CCCCN(C(=O)c1ccc(NC2CC2)c([N+](=O)[O-])c1)c1c(N)n(CC(C)C)c(=O)[nH]c1=O`, the “hERG current change (%, negative = inhibition) at 1uM” value falls from 15.8% to 3.75%.

Going from `COc1ccc(OC)c(NC(=O)CSc2nnc(NC(=O)c3ccco3)s2)c1` to `COc1ccc(C2CC(=O)N(C)c3ccccc3S2)cc1OC` (centres unmarked), the “hERG current change (%, negative = inhibition) at 1uM” value falls from 13.5% to 8.07%.

Compared with `S=c1[nH]nc(C2CCCCC2)n1/N=C/c1ccc(Br)cc1`, `COC1CCCCC1NS(=O)(=O)c1ccc(Cl)cc1` (centres unmarked) is higher in “hERG current change (%, negative = inhibition) at 1uM” value: 0.804% for the first, 11.8% for the second.

Compared with `O=C(CC1CC2CCC1C2)N1CCN(S(=O)(=O)c2ccccc2F)CC1` (centres unmarked), `CC(C)CC1NC(=O)N(CC(=O)N2CCN(S(=O)(=O)c3ccc4ccccc4c3)CC2)C1=O` (centres unmarked) is higher in “hERG current change (%, negative = inhibition) at 1uM” value: -0.997% for the first, -0.576% for the second.

Going from `Cc1ccc(NC(=O)Nc2c(C)[nH]c(=O)[nH]c2=O)cc1Cl` to `CC(=O)Nc1ccc(OC(=O)N(C)C)cc1`, the “hERG current change (%, negative = inhibition) at 1uM” value falls from 12.9% to -4.18%.

First: CN1CCN(NC(=O)c2ccccc2F)CC1
Second: CCC1CCCCN1CCCNC(=O)CC1Oc2ccccc2NC1=O (centres unmarked)
The “hERG current change (%, negative = inhibition) at 1uM” value of the first is higher: 11.7% for the first, 2.01% for the second.

Going from `O=C(O)c1cc2c(cc1Cl)N1CCCCCC1=NS2(=O)=O` to `CCC(C(=O)O)N1C(=O)/C(=C/C(C)=C/c2ccccc2)SC1=S` (centres unmarked), the “hERG current change (%, negative = inhibition) at 1uM” value rises from 3.58% to 6.92%.

First: CCn1c(SCC(=O)c2c[nH]c3ccccc23)nnc1-c1cccs1
Second: O=c1cc(CSc2ccccc2)nc(-c2ccccc2)[nH]1
The “hERG current change (%, negative = inhibition) at 1uM” value of the first is higher: 14.7% for the first, 6.93% for the second.

First: CCCNC(=O)COC(=O)/C=C/c1cccc(F)c1
Second: CCOc1ccc(CCNC(=O)COC(=O)/C=C/c2ccc(OC)c(OC)c2)cc1OCC
The “hERG current change (%, negative = inhibition) at 1uM” value of the first is lower: 6.98% for the first, 12.4% for the second.

Compared with `CCOC(=O)CSc1nc(C(C)C)nc2sc(C)c(C)c12`, `O=C(COc1ncnc2scc(-c3ccc(F)cc3)c12)NCc1ccco1` is lower in “hERG current change (%, negative = inhibition) at 1uM” value: 13.5% for the first, 11.3% for the second.

First: Cc1ccc2c(c1)C(c1ccccc1)N(C(=O)c1ccc(Br)cc1)CC(=O)N2 (centres unmarked)
Second: CC(NC(=O)CCc1nnc(-c2ccc(-c3ccccc3)cc2)o1)c1nc2ccccc2[nH]1 (centres unmarked)
The “hERG current change (%, negative = inhibition) at 1uM” value of the first is higher: 14% for the first, 9.71% for the second.

First: CC(C)N1CCC(N2CCN(Cc3cccc4nonc34)CC2CCO)CC1 (centres unmarked)
Second: OCCC1CN(CC2CCCCC2)CCN1CC1CCCCC1 (centres unmarked)
The “hERG current change (%, negative = inhibition) at 1uM” value of the first is higher: 9.37% for the first, -2.7% for the second.

Going from `Nc1ccc2c(c1)Oc1ccccc1C=C2` to `Cc1ccc(-c2nc3ncccn3c2Nc2ccc3c(c2)OCCO3)o1`, the “hERG current change (%, negative = inhibition) at 1uM” value rises from 2.34% to 10.5%.

Going from `CC(=O)c1ccc(N(C(=O)CNC(=O)c2ccco2)C(C(=O)NC2CCCC2)c2ccncc2)cc1` (centres unmarked) to `CN(C)Cc1ccccc1C(O)(c1ccccc1)c1ccccc1`, the “hERG current change (%, negative = inhibition) at 1uM” value falls from 15.1% to 6.19%.

Compared with `Cc1nc(-c2ccccc2)cs1`, `CC1CN(C(=S)Nc2cccc(F)c2)CC(C)O1` (centres unmarked) is higher in “hERG current change (%, negative = inhibition) at 1uM” value: 13.5% for the first, 14.6% for the second.
